Assay results taken from PubChem BioAssay AID1508624 (National Center for Advancing Translational Sciences (NCATS), 2021).
About 120 (0.25%) of roughly 48,000 compounds were called active. Inconclusive results (about 4%) are left out. The call rests on the fitted dose curve; in most records, active means well fitted activation curve with a large enough effect; inconclusive means small, poorly fitted or top-dose-only effect, or another doubt; inactive means no such curve, though single readings can be large or run the other way. The list shows a part of the results.

Test: Primary qHTS for Identification of Small Molecule Activators of Huntingtin-Antisense Promoter Activity; further: nearly all actives have a fitted effect of over 55% in size
Conditions: HEK293 HTT-AS promoter firefly luciferase reporter, 24 h; series mostly up to 57.5 µM; activity change, positive = activation: at the top concentration
In short: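 Firefly luciferase readout (Dual-Glo, 10 min RT) after 24 h, 37 °C compound exposure (final up to 57.5 uM) of HEK293 reporter cells cultured 24 h beforehand; PTC124 at 50 uM final as control inhibitor; activity scaled vehicle 0%, zero RLU -100%.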

Activity change, positive = activation, inactive:
COc1ccc(Cn2c(=O)[nH]c3cc(C(=O)N4CCN(c5cc(Cl)ccc5C)CC4)ccc3c2=O)cc1 -11.7%
COc1ccc(-c2nn(-c3cccc(F)c3)c3c2cnc2cc(OC)c(OC)cc23)cc1 -22.8%
COc1ccc2[nH]cc(S(=O)(=O)c3ccc(C)c(C)c3)c(=O)c2c1 -34.7%
O=C(CCCCn1c(=O)c2ccccc2n(CC(=O)Nc2cccc(F)c2)c1=O)NCCc1ccccc1 -3.4%
CCN1/C(=C/C=C/c2sc3ccccc3[n+]2CC)Sc2ccccc21 -65.9% [at 25.1 µM, percent change from vehicle, -100% = no light]
Cc1ccc(NC(=O)Cn2c(=O)n(Cc3nc(-c4ccccc4)no3)c(=O)c3cc4c(cc32)OCO4)c(C)c1 -9.24%
COc1ccc(CCNC(=O)CSc2n[nH]c(-c3ccccc3Cl)n2)cc1OC -18.4%
COc1ccc(Cl)cc1NC(=O)CSC1=Nc2ccccc2C2=NC(CC(=O)NCc3cccs3)C(=O)N12 (stereo unspecified) -17.9%
O=C(NCc1ccccc1)c1cnc(N2CCCCC2)c2ccccc12 7.3%
COc1cccc(Nc2nc3ccc(C)cc3nc2-n2nc(C)cc2C)c1 6.22%
COc1ccc(Nc2c(-c3ccccn3)nc3ccc(Cl)cn23)cc1 -3.29%
Cc1ccc(NC(=O)C2=CC(c3ccc4c(c3)OCO4)=NS(=O)(=O)N2C)cc1 -9.73%
CCc1ccc(-n2c(=O)c3cccnc3n2CC(=O)NCc2ccc(C)cc2)cc1 -5.31%
CCOC(=O)c1cc2c(=O)n3ccccc3nc2n(Cc2ccco2)c1=NC(=O)c1ccc(OCC)cc1 0%
Cn1c(=O)n(CCCc2ccccc2)c(=O)c2c1nc1n2CCN1c1ccc(F)cc1 -23%
CCOCC(O)COc1ccc(NC(=O)CC[S+](C)C)cc1 (stereo unspecified)
CCCCOC(=O)c1ccc(NC(=O)c2cnc3ccc(C)cn3c2=O)cc1 6.14%
CCn1c(=O)cc(OCC(=O)N2CCN(c3ccc(F)cc3)CC2)c2ccccc21 -18.4%
CCN(c1cccc(C)c1)c1ncnc2c1cnn2-c1cccc(Cl)c1 8.11%
Cc1nn(C(=O)c2ccc(Br)cc2)c(C)c1Sc1ccccc1 -4.99%
COc1cc(OC)c(N(C)C(=O)c2sc3nc4n(c(=O)c3c2C)CCCC4)cc1Cl -10%
Cn1cc(S(=O)(=O)c2ccccc2)c(=O)c2cc(F)c(N3CCCCCC3)cc21 -24%
Cc1cc(C)cc(-n2c(SCC(=O)Nc3ccc4c(c3)OCCO4)nc3c([nH]c4ccccc43)c2=O)c1 -13.4%
COc1ccc(CNC(=O)CCc2nc(-c3ccc(C)cc3)no2)c(OC)c1 -31.9%
O=C(Nc1ccc2nc(SCC(=O)N3CCc4ccccc43)sc2c1)c1ccccc1F -4.76%
CC1=C(c2ccc(C)c(C)c2)S(=O)(=O)N=C1N1CCC(C(=O)NC(C)Cc2ccco2)CC1 (stereo unspecified) -18.6%
COc1ccc(C)cc1-n1cnc2cc(C(=O)NC3CCCC3)ccc21 -18%
COc1cc(C(=O)Nc2nonc2-c2ccc(C)c(C)c2)cc(OC)c1OC -20.5%
Cc1ccc(NC(=O)c2ccc(NC(=O)N3CCSc4ncccc43)cc2)c(C)c1 3.69%
Cc1ccc(C(c2sc3nc(-c4ccco4)nn3c2O)N2CCC3(CC2)OCCO3)cc1 (stereo unspecified) -2.4%
Cc1ccc(NC(=O)CSc2nc(-c3ccccc3Cl)nc3cc(=O)[nH]n23)c(C)c1 -7.48%
CCc1cccc(Nc2ncnc3onc(-c4ccc(F)cc4)c23)c1 -33.2%
COC(=O)c1c(C)nn(-c2ccc(F)cc2)c1-n1cccc1 -20.5%
O=C(CSc1nc(-c2ccc(F)cc2)cc(C(F)(F)F)n1)NCCc1ccccc1 -21.8%
COc1cccc(N2CCN(S(=O)(=O)c3ccc(-c4ccno4)cc3OC)CC2)c1 -13.3%
COc1ccc(OC)c(C2NC(=O)NC(C)=C2C(=O)Nc2ccc(F)cc2)c1 (stereo unspecified) -8.41%
COc1cccc(N2CCN(C(=O)c3ccc(NC(=O)c4nsc5ccccc45)cc3)CC2)c1 -70.5%
CN1CCN(CCOc2cc(OC3CCOCC3)c3c(Nc4c(Cl)ccc5c4OCO5)ncnc3c2)CC1 11.9%
COc1ccc(NC(=O)c2ccco2)cc1NC(=O)COc1ccc(Cl)cc1C -32.7%
O=C(NCC(O)CO)c1c(I)c(C(=O)NCC(O)CO)c(I)c(N(CCO)C(=O)CO)c1I (stereo unspecified) -14.4%
Cc1ccc(C(=O)NCc2ccc(F)cc2)cc1NC(=O)c1nsc2ccccc12 -2.36%
CCN(CC)CCNC(=O)c1sc2ncccc2c1-n1cccc1 -6.72%
CCOCCCn1c(=N)c(C(=O)NCC2CCCO2)cc2c(=O)n3cccc(C)c3nc21 (stereo unspecified) -6.86%
Nc1ccc(S(=O)(=O)Nc2ccnn2-c2ccccc2)cc1
Cc1ccc(C)c(NC(=O)Cn2c(=O)n(Cc3ccccc3)c(=O)c3oc4ccccc4c32)c1 -8.3%
Cc1ccc(C)c(N2CCN(Cc3csc(C)c3)CC2)c1 -23.6%
COC(=O)C1=C(c2ccccc2)c2ccccc2S(=O)(=O)N1CC(=O)Nc1ccccc1Cl -31.2%
COC(=O)C1CCN(S(=O)(=O)c2cc3c4c(c2)CC(=O)N4CCC3)CC1 7.11%
CCN(C)C(=O)Oc1cccc([C@H](C)N(C)C)c1
O=C(c1cccs1)N1CCCc2cc(NS(=O)(=O)c3ccc(F)cc3F)ccc21 -4.08%
Cc1ccc(S(=O)(=O)c2cn(Cc3ccccc3Cl)c3ccc(F)cc3c2=O)cc1 7.28%
C[C@@H](N)c1ccc(C(=O)Nc2ccnc3[nH]ccc23)cc1 1.05%
COc1ccc(Br)cc1CNC(=O)c1ccc2c(c1)N(Cc1ccc(C)cc1)CCS2 -11.6%
Cc1ccc(CN2C(=O)c3ccccc3Sc3ccc(C(=O)OCc4ccco4)cc32)cc1 -24.1%
CC1Cc2cc(S(=O)(=O)N(Cc3ccccc3)C(C)C)ccc2N1C(=O)C1CCC1 (stereo unspecified) -37.2%
Cc1ccccc1Nc1c(-c2cccs2)nc2cccc(C)n12 -12.7%
CCOc1ccc(/C=C/c2nc(C#N)c(NCCc3ccccc3)o2)cc1 -19.1%
O=C(CSc1nc2c([nH]c3ccccc32)c(=O)n1-c1ccc(Cl)cc1)NCC1CCCO1 (stereo unspecified) -12.8%
Cc1cc(C(=O)Nc2c(C)nc3ccccn3c2=O)ccc1[N+](=O)[O-] -14.9%
CCOC(=O)c1c(C)oc2nc(C)nc(NCc3ccccc3OC)c12 -34.5%
COc1ccccc1NC(=O)Cn1c(=O)n(CCCCCC(=O)NCc2ccccc2)c(=O)c2sccc21 6.92%
COC(=O)C(c1ccccc1Cl)N1CCc2sccc2C1 (stereo unspecified) -2.26%
COc1cccc(C(=O)Nc2ccccc2-c2nnc(-c3cccc(OC)c3)o2)c1 -11.5%
O=C(Cn1c(=O)oc2cc(S(=O)(=O)NCc3ccccc3)ccc21)NCc1ccc(Cl)cc1 -26.9%
CC(=O)Nc1ccc(S(=O)(=O)NC2(C(F)(F)F)NC(=O)N(CCc3ccc(F)cc3)C2=O)cc1 (stereo unspecified) -9.11%
Cc1ccc(-n2c(SCC(N)=O)nc3c(oc4ccccc43)c2=O)cc1C -6.25%
Cc1ccc(-n2nc3c(=O)n(CCCC(=O)NCc4ccccc4F)nc(C)c3c2C)cc1 -17.5%
Cc1csc2nc(COC(=O)CNC(=O)c3ccccc3Cl)cc(=O)n12 0.297%
O=C(CSc1nc2ccncc2[nH]1)Nc1ccccc1C(F)(F)F -40.8%
O=C(Nc1c(C(=O)N2CCN(c3ccccc3F)CC2)oc2ccccc12)c1ccccc1F -0.492%
O=C(CN1CCCN(Cc2ccc(F)cc2)S1(=O)=O)NCc1ccccc1Cl -24.8%
CN1CCN(CCCNC(=O)c2ccc3nc(Cc4ccccc4)oc3c2)CC1 -10.1%
CCC12CN3CC(CC)(CN(C1)C3c1cc(Br)ccc1OC)C2=O (stereo unspecified) -0.0174%
CCn1cc(C(=O)NCc2ccc(C)cc2)c(=O)c2cc(S(=O)(=O)N3CCc4ccccc4C3)ccc21 -20.8%
CNC(=O)c1cnn(-c2nc(N)c3ncn([C@@H]4O[C@H](CO)[C@@H](O)[C@H]4O)c3n2)c1 -12.6%
Cc1nc(-c2ccc(S(=O)(=O)N3CCN(c4ccc(F)cc4)CC3)cc2)co1 -37.9%
CCc1ccc(N(C)S(=O)(=O)c2ccc3[nH]cc(C(=O)NCC4CCCO4)c(=O)c3c2)cc1 (stereo unspecified) -45.1%
N#Cc1ccccc1NC(=O)c1cnc(N2CCOCC2)c2ccccc12 -10.1%
CCC(=O)N1CCc2cc(Br)cc(S(=O)(=O)CCC(=O)NCc3ccc(F)cc3)c21 12.9%
CC(=O)N1CCOc2cc(S(=O)(=O)N(C)Cc3ccccc3)c(Cl)cc21 -16.5%
COc1ccccc1-c1nnc(C2CCN(C(=O)c3ccc(Cl)cc3)CC2)o1 13.2%
Cc1ccc(Cn2c(CNC(=O)c3cccc(C)c3)nc3ccccc32)cc1 -30.1%
COc1cccc2c1Oc1ncccc1N(C(=O)CCC(=O)NCc1ccc(C)cc1)C2 -7.44%
Cc1ccc(C)c(CN2C(=O)c3ccccc3S(=O)(=O)c3ccc(C(=O)NCc4ccccc4)cc32)c1 -18.8%
CCCN1CCc2nc(N3CCN(c4ncccn4)CC3)ncc2C1 12.1%
Cc1cccc(OCCCn2c(CCNC(=O)C(C)(C)C)nc3ccccc32)c1 -17.3%
CCn1cc2nc(SCc3cc(C)ccc3C)n(Cc3ccc(OC)cc3)c(=O)c2n1 -17.9%
Cc1cccc(OCCSc2nc3ccc(NC(=O)COc4ccccc4)cc3s2)c1 -7.71%
CCOCCCNC(=O)C(=O)Nc1c2c(nn1-c1ccc(OC)cc1)CSC2 -9.84%
Cc1ccc2c(=O)c(C(=O)c3ccc(F)cc3)cn(CC(=O)NCCc3ccccc3)c2n1 -7.16%
CCOc1ccc(C(=O)Nc2ccc3oc(-c4cccnc4)nc3c2)cc1 12.1%
Cc1c(C(=O)NCc2ccccc2Cl)sc2nc[nH]c(=O)c12 1.92%
COc1ccc(CN(Cc2ccco2)c2cnc(S(C)(=O)=O)nc2C(=O)Nc2ccc(C)cc2C)cc1 -25.6%
Cc1cc(C)c(OCC(=O)N(Cc2cccc(F)c2)Cc2ccco2)c(C)c1 -32.1%
CCc1nn(CC(=O)N2CCN(c3cccc(C(F)(F)F)c3)CC2)c(=O)c2cccn12 -16.7%
Cc1cccc(NC(=O)Cn2c(=O)oc3cc(S(=O)(=O)NC4CCCC4)ccc32)c1 -36.6%
